Results taken from article PMC6212790.
The list shows a part of the results. At the low end of the ranking the order means little.
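Further: rank score from −0.5 (least bound) to 0.5 (best bound).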

The sequences below were run against T1, GST-Rok (full length) (UniProt O34857) (assay: protein binding microarray). Conditions: Rok is a gene silencer of Bacillus subtilis; high values mean tight binding; most listed sequences are background and not binding sites; double strand, one strand shown.
T1 sequence: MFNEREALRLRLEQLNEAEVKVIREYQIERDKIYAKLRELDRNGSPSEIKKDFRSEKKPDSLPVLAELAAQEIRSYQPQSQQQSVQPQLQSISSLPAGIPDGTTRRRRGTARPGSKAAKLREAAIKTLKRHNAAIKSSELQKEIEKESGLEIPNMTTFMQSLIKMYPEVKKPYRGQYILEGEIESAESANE
GGCGAAGA showed a binding signal of -0.0503 E-score. GCAGCTGC gave a binding signal of -0.315 E-score. CCATCTCA showed a binding signal of -0.304 E-score. In the case of CTGGAGAC, the binding signal is reported as -0.262 E-score. For ATCAGAAG, the binding signal was -0.00319 E-score. Work on ATCCAGGG yielded a binding signal of -0.193 E-score. ATGGCCCC gave a binding signal of -0.255 E-score. Work on CTCTTAAA yielded a binding signal of -0.267 E-score. With GGGGGCCA the binding signal was -0.405 E-score. Sequence GTGCTTGA has a binding signal of 0.0704 E-score. AACCAACT was tested, and the binding signal was 0.167 E-score. Sequence AGTCACCA has a binding signal of -0.0688 E-score. For AGTTTTGA, the binding signal was 0.095 E-score. For AATATTAG, the binding signal was 0.193 E-score. ATACATCC gave a binding signal of 0.21 E-score. ATCACAAC was tested, and the binding signal was -0.0989 E-score. In the case of TCCGTAGA, the binding signal is reported as 0.118 E-score. Work on AACGCAGT yielded a binding signal of -0.0724 E-score. AAAAGTGC gave a binding signal of -0.127 E-score. With GTGTAAGA the binding signal was -0.0311 E-score. Sequence AAAACACT has a binding signal of -0.0816 E-score. GGGTTAAC gave a binding signal of -0.137 E-score. In the case of CTAATGAA, the binding signal is reported as 0.0765 E-score. AGTATCAA showed a binding signal of 0.24 E-score. In the case of ATAAAAAC, the binding signal is reported as 0.266 E-score. With CGGTAACA the binding signal was 0.204 E-score. ACGCGACC gave a binding signal of -0.0602 E-score. In the case of TAGTACGA, the binding signal is reported as 0.359 E-score. For AGCAGCAT, the binding signal was 0.0714 E-score. With CGCAGTTA the binding signal was 0.078 E-score. In the case of GAAGGCAC, the binding signal is reported as -0.194 E-score. Work on AAGTTTGT yielded a binding signal of 0.0838 E-score. CTCCGGGA gave a binding signal of -0.304 E-score. With ATTACGAC the binding signal was 0.322 E-score. CCCGAGAA was tested, and the binding signal was -0.115 E-score. ATCTTACA gave a binding signal of 0.0462 E-score. AGTGGGGC gave a binding signal of -0.377 E-score. CACACCCA showed a binding signal of -0.0805 E-score. Sequence ACGAGAGT has a binding signal of -0.182 E-score. Sequence ATCCCGGG has a binding signal of -0.274 E-score. With TCGCCAAA the binding signal was -0.22 E-score. GAGTGGCA was tested, and the binding signal was -0.2 E-score. For CTCAACTC, the binding signal was -0.268 E-score. ATCGGTAA was tested, and the binding signal was 0.198 E-score. Work on AAGCGTCC yielded a binding signal of -0.273 E-score. Work on TCCTTACA yielded a binding signal of -0.0266 E-score. With CTTCACAC the binding signal was 0.0658 E-score. With AATCATTG the binding signal was 0.101 E-score. In the case of AGTCAGAT, the binding signal is reported as 0.00954 E-score. Work on ACAGGTGG yielded a binding signal of -0.232 E-score. GCGGAGGA showed a binding signal of -0.264 E-score. With CCACGCAG the binding signal was -0.274 E-score. Work on AATACACG yielded a binding signal of 0.127 E-score. GGACCAAC gave a binding signal of -0.146 E-score. CACTGCTA showed a binding signal of 0.106 E-score. With AAGAATCG the binding signal was 0.0047 E-score. GGGAGCTA gave a binding signal of -0.215 E-score. CGCTACGA was tested, and the binding signal was 0.0785 E-score. In the case of CGTGTCTC, the binding signal is reported as 0.0308 E-score. GCCTTCCC showed a binding signal of -0.391 E-score. GCGAATAC gave a binding signal of 0.0251 E-score. AGACACGC was tested, and the binding signal was 0.0575 E-score. Work on TCGATTAA yielded a binding signal of 0.142 E-score. In the case of CAGGTGCG, the binding signal is reported as -0.245 E-score. For ATGTCAAT, the binding signal was 0.0933 E-score. TGGTGAAA showed a binding signal of -0.0716 E-score. Sequence CATACTTC has a binding signal of 0.191 E-score. Work on CAGTCTCG yielded a binding signal of -0.101 E-score. CGCCCGTC gave a binding signal of -0.333 E-score. CCCCTGTC was tested, and the binding signal was -0.332 E-score. CCGTCTCC showed a binding signal of -0.25 E-score. GGATTGAA was tested, and the binding signal was -0.0953 E-score. In the case of TGCCGTAA, the binding signal is reported as 0.0324 E-score. With TGAAGACA the binding signal was -0.0179 E-score. For CGATTTAC, the binding signal was 0.334 E-score. CACTATCG gave a binding signal of 0.219 E-score. Work on TACCCATA yielded a binding signal of 0.242 E-score. In the case of AGAGACCA, the binding signal is reported as -0.0403 E-score. For GGATTCAA, the binding signal was -0.157 E-score. Work on AATTATGC yielded a binding signal of 0.197 E-score. For CGCAACGC, the binding signal was -0.0361 E-score. GATGGCGA gave a binding signal of 0.0309 E-score. GATCGCGC was tested, and the binding signal was -0.16 E-score. Sequence AAGTTATT has a binding signal of 0.228 E-score. GTGTTATA showed a binding signal of 0.112 E-score. CGGTTCCA gave a binding signal of 0.0669 E-score. With GAAATACC the binding signal was 0.175 E-score. In the case of GAGGGGAA, the binding signal is reported as -0.359 E-score. With CTTTACTA the binding signal was 0.0947 E-score. Sequence ATGCATTC has a binding signal of 0.0203 E-score. For GCTTTAAA, the binding signal was -0.0771 E-score. In the case of CTCATGCC, the binding signal is reported as -0.252 E-score. In the case of CAGGGGGC, the binding signal is reported as -0.434 E-score. With ACCCGTAT the binding signal was -0.0515 E-score. Work on CCGGGACC yielded a binding signal of -0.441 E-score. With AGCCGATA the binding signal was 0.106 E-score. Work on CCGAAAGC yielded a binding signal of -0.171 E-score. In the case of ATGATCGC, the binding signal is reported as 0.123 E-score. For ACATCAGT, the binding signal was 0.167 E-score. With TACGTTAA the binding signal was 0.0468 E-score. With TACACGGA the binding signal was -0.0372 E-score. Work on GGCACCTA yielded a binding signal of 0.0107 E-score. With AAGACCGG the binding signal was -0.0634 E-score. CACTGAAG gave a binding signal of -0.205 E-score. CCCACGAC gave a binding signal of -0.373 E-score. With AACATTTA the binding signal was 0.161 E-score. For CTCTACAG, the binding signal was -0.0694 E-score. Sequence AAGAATCT has a binding signal of 0.178 E-score. CCCCAGCC showed a binding signal of -0.43 E-score. For ATTAGCAA, the binding signal was 0.0548 E-score. With CCTGACGA the binding signal was -0.0533 E-score. With ACCCTCCT the binding signal was -0.336 E-score. GTCGACCA showed a binding signal of -0.262 E-score. AAACGCCG was tested, and the binding signal was -0.286 E-score. AGGCTCTA showed a binding signal of 0.0177 E-score. AAGACACG showed a binding signal of -0.0199 E-score. In the case of CTTAAAGA, the binding signal is reported as -0.152 E-score. GGCAGTAA showed a binding signal of 0.296 E-score. Sequence CGGACCTA has a binding signal of -0.16 E-score. For ATACAGTC, the binding signal was 0.0812 E-score. AGTGTATA was tested, and the binding signal was 0.303 E-score. For CGCAAATC, the binding signal was 0.106 E-score. Work on ACGTTCCT yielded a binding signal of 0.0509 E-score. Work on ATTTGGAG yielded a binding signal of -0.164 E-score. ACGACTCA gave a binding signal of 0.0569 E-score. CAACATAA showed a binding signal of 0.169 E-score. Sequence GGCGACAC has a binding signal of -0.133 E-score. In the case of CCGGTCAA, the binding signal is reported as -0.0527 E-score. With ATTTCCTC the binding signal was -0.0381 E-score. GCGGTAAC gave a binding signal of 0.032 E-score. TTACACAA was tested, and the binding signal was 0.0766 E-score. For GTTAGTGA, the binding signal was 0.0739 E-score. With AAGCCAGC the binding signal was -0.00201 E-score. For CAGTACCC, the binding signal was -0.164 E-score. With AAGGTTTA the binding signal was 0.245 E-score. For TGCGAGCA, the binding signal was -0.147 E-score. GGGCGATA was tested, and the binding signal was -0.215 E-score. GAGACGCA was tested, and the binding signal was -0.373 E-score. Work on ACTGGGAC yielded a binding signal of -0.302 E-score. In the case of GTTGTAGA, the binding signal is reported as 0.27 E-score. CTCCGGAC showed a binding signal of -0.132 E-score. CCCAAGGG showed a binding signal of -0.304 E-score. For GTAGTTTA, the binding signal was 0.382 E-score. Sequence AACAACTG has a binding signal of 0.0925 E-score. For ATTGGGTG, the binding signal was -0.0963 E-score. With AGAGTGCT the binding signal was -0.0247 E-score. In the case of CTAGTGCC, the binding signal is reported as 0.0302 E-score. GTTGACCA was tested, and the binding signal was -0.0343 E-score. ATTCCCTA gave a binding signal of 0.104 E-score. Sequence ATGTGCTC has a binding signal of 0.0109 E-score. Work on GCGGCACA yielded a binding signal of -0.15 E-score. Sequence CAGTCCCA has a binding signal of -0.125 E-score. ATTCGTGA showed a binding signal of 0.0968 E-score. TCTGTTAA gave a binding signal of -0.0252 E-score. With ATTCGCTA the binding signal was 0.135 E-score. In the case of CAAAATAG, the binding signal is reported as 0.225 E-score. TACGCATA showed a binding signal of -0.0665 E-score. AGTGATTA gave a binding signal of 0.144 E-score. AAGGCTAC gave a binding signal of 0.0185 E-score. In the case of CATATGCA, the binding signal is reported as 0.117 E-score. In the case of GCCGCGGC, the binding signal is reported as -0.315 E-score. AGCTGCAG gave a binding signal of -0.0626 E-score. With ATGCGAGC the binding signal was -0.126 E-score. CCTCACCG showed a binding signal of -0.0671 E-score. For GCCCCTGA, the binding signal was -0.341 E-score. Sequence ATTACAAC has a binding signal of 0.286 E-score. ATGTTAAG showed a binding signal of 0.0993 E-score. Work on AATATAAC yielded a binding signal of 0.193 E-score. Sequence AGGTCACC has a binding signal of -0.279 E-score. Sequence GAAGTGAA has a binding signal of -0.111 E-score. Work on CGCCCACA yielded a binding signal of -0.238 E-score. AAGTTGGT was tested, and the binding signal was 0.0708 E-score.
